# Measurements: PubChem BioAssay AID540317 (National Center for Advancing Translational Sciences (NCATS), 2011)
# Out of some 390,000 compounds screened, about 2,200 (0.56%) were called active. Inconclusive means that the source gave no clear call. Such entries were picked first, then a sample of the others. The call rests on the fitted dose curve; in most records, active means well fitted inhibition curve with a large enough effect; inconclusive means small, poorly fitted or top-dose-only effect; inactive means no such curve, though single readings can be large or run the other way. Potencies beside an inconclusive call are fits to weak or partial responses and may not hold up.
# Target: Chromobox protein homolog 1 (Homo sapiens) (UniProt P83916)
# Assay: HTS for Inhibitors of HP1-beta Chromodomain Interactions with Methylated Histone Tails; further: nearly all actives have a fitted effect of over 70% in size
# Details: AlphaScreen HP1-beta / biotin-H3K9me3 peptide binding; series mostly up to 114 µM
# In short: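 AlphaScreen: HP1-beta (50 nM) preformed 30 min with biotin-H3(1-18)K9me3 peptide (50 nM) in PBS pH 7.4, 0.01% Tween-20. Compound added for 30 min at RT, then streptavidin donor/nickel chelate acceptor beads (10 ug/mL) for 30 min.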
# Potency means the concentration at half of the fitted maximal effect; tags describe the fitted curve by direction and shape.
# UniProt P83916, sequence (P83916 whole entry, looked up): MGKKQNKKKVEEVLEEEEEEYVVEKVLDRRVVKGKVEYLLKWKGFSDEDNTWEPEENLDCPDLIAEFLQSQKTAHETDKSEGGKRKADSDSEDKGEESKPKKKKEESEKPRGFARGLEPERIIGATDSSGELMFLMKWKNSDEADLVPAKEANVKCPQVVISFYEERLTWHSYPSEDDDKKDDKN
row,SMILES,Potency
1,COc1ccc(C(=O)NC(=S)Nc2ccc(N3CCOCC3)cc2)cc1Cl,"inconclusive: 17.8 µM [inhibitor, full curve]"
2,CCNC(=S)NN=C1c2ccccc2-c2ccccc21,"inconclusive: 14.1 µM [inhibitor, full curve]"
3,CC(=O)c1cc(NC(=O)c2ccccc2)c(=O)oc1C,"inconclusive: 31.6 µM [inhibitor, full curve]"
4,CCN(CC(=O)Nc1ccc(S(=O)(=O)N2CCCC2)cc1)CC(=O)Nc1cccc(OC)c1,"inconclusive: 25.1 µM [inhibitor, partial curve, poor fit]"
5,C/C(=N\NC(=S)NCc1ccccc1)c1ccco1,"inconclusive: 12.6 µM [inhibitor, partial curve, poor fit]"
6,CC(=O)c1c(C)nc(-c2ccc3c(c2)OCO3)n1O,inactive
7,Cc1ccccc1OCCNCC(C)O (stereo not drawn),"inconclusive: 44.7 µM [inhibitor, partial curve, poor fit]"
8,O=C(Cc1cccc(NC(=O)C2CCCN(C(=O)C3CCC3)C2)c1)Nc1ccc(C(=O)N2CCCCC2)cc1 (stereo not drawn),inactive
9,O=S(=O)(Nc1c(O)ccc2ccccc12)c1ccccc1,"inconclusive: 50.1 µM [inhibitor, partial curve]"
10,CCc1ccc(S(=O)(=O)/N=C2/C=C(Sc3ncn[nH]3)C(=O)c3ccccc32)cc1,"inconclusive: 8.91 µM [inhibitor, full curve, poor fit]"
11,CCOC(=O)c1nn2c(C(F)(F)F)cc(-c3ccc(C)cc3)nc2c1Cl,inactive
12,COc1ccc(Cl)cc1S(=O)(=O)N1CCN(CC(=O)Nc2ccccc2C(F)(F)F)CC1,inactive
13,COc1ccc(-c2cc(-c3c(O)c(OC)c4occc4c3OC)[nH]n2)cc1OC,"inconclusive: 35.5 µM [inhibitor, partial curve, poor fit]"
14,CCn1c(C)c(CS(=O)(=O)c2ccccc2)[nH]c1=O,active: 10 µM
15,Cc1ccc(Nc2c([N+](=O)[O-])ccc3nonc23)c(C)c1,"inconclusive: 3.16 µM [inhibitor, partial curve, poor fit]"
16,CCOC(=O)c1ccc(NC(=O)CN(c2ccc(C)cc2)S(=O)(=O)c2c(C)n[nH]c2C)cc1,inactive
17,COc1ccc(-n2c(-c3ccco3)n[nH]c2=S)cc1,"inconclusive: 39.8 µM [inhibitor, single point]"
18,COc1ccc(OC)c(NC(=O)COC(=O)CCS(=O)(=O)c2ccc(Cl)cc2)c1,inactive
19,COC(=O)c1ccc(NC(=O)c2c(Br)cnn2C)cc1,inactive
20,COc1ccc(-n2nnc3c(SC(C(C)=O)C(=O)N(C)C)ncnc32)cc1 (stereo not drawn),"inconclusive: 28.2 µM [inhibitor, partial curve]"
21,O=C1C(Cc2ccccc2)Nc2ncnc(N3CCN(c4ccccc4)CC3)c2N1Cc1ccccc1 (stereo not drawn),inactive
22,Cc1nc2sccn2c1-c1csc(NCc2ccccc2)n1,"inconclusive: 44.7 µM [inhibitor, partial curve]"
23,CCCOc1cccc(C(=O)NC(=S)Nc2ccccc2)c1,"inconclusive: 22.4 µM [inhibitor, single point]"

row,SMILES,Potency
1,COc1ccccc1Nc1c2c(nc3ccc(NC(=O)/C=C/c4cc(OC)c(OC)c(OC)c4)cc13)CCCC2,"inconclusive: 12.6 µM [inhibitor, full curve, poor fit]"
2,CCOC(=O)C1CCCN(C(=O)COC(=O)c2cc(=O)c3ccccc3o2)C1 (stereo not drawn),inactive
3,COCCn1c(-c2ccc(OC)cc2)cnc1SCC(=O)Nc1cc(C)on1,inactive
4,CCOC(=O)C1CCCN(Cc2cccc(Oc3ccccc3)c2)C1 (stereo not drawn),"inconclusive: 89.1 µM [inhibitor, single point]"
5,CC(C)[C@H](NS(=O)(=O)c1ccccc1)C(=O)Nc1ccccc1N1CCOCC1,inactive
6,Cc1cc(C)cc(N2C(=O)CS(=O)(=O)C23C(=O)N(C)c2ccccc23)c1 (stereo not drawn),inactive
7,COc1ccc(-c2c/c(=N\c3nc(-c4ccccc4)c(C)s3)c3ccccc3o2)cc1O,"inconclusive: 25.1 µM [inhibitor, partial curve]"
8,COc1ccc(-c2cc(C3CCN(c4ncccc4[N+](=O)[O-])CC3)[nH]n2)cc1,"inconclusive: 17.8 µM [inhibitor, full curve]"
9,COc1ccc(N(CC(=O)NCCc2ccccc2)C(=O)CCC(=O)Nc2nccs2)cc1,"inconclusive: 89.1 µM [inhibitor, partial curve, poor fit]"
10,Cc1cccc(C)c1OCCN1CCOCC1,"inconclusive: 15.8 µM [inhibitor, partial curve, poor fit]"
11,CCn1c(C)nc2cc(C(=O)NNC(=S)Nc3ccc(OC)cc3)ccc21,inactive
12,COc1cc(OC)cc(C(=O)NCC(=O)N2CCN(c3ccc(O)cc3)CC2)c1,"inconclusive: 79.4 µM [inhibitor, single point]"
13,CCSC(=O)NC12CC3CC(CC(C3)C1)C2,inactive
14,C=CCn1c(COc2ccc(Cl)cc2)nnc1SCC(=O)c1c(N)n(C)c(=O)n(C)c1=O,inactive
15,CC(=O)N1CCN(c2cc(N3CCc4ccccc4C3)c(F)cc2[N+](=O)[O-])CC1,"inconclusive: 20 µM [inhibitor, full curve]"
16,O=C(COc1ccc([N+](=O)[O-])cc1)NNC(=S)NC(=O)c1ccc(Br)cc1,"inconclusive: 7.94 µM [inhibitor, partial curve]"
17,CN(C)c1ccc(NC(=S)NC(=O)/C=C/c2ccc(Cl)cc2)cc1,"inconclusive: 79.4 µM [inhibitor, partial curve]"
18,Cc1nc(N)nc2c1CCCC2,inactive
19,N#C/C(=C\c1cccc(Oc2ccccc2)c1)C(=O)N1CCOCC1,inactive
20,CC(NCC(=O)Nc1ccccc1C(=O)NC1CC1)c1ccc(S(N)(=O)=O)cc1 (stereo not drawn),"inconclusive: 8.91 µM [inhibitor, partial curve, poor fit]"
21,CN(c1ccccc1)c1ccc(/C=C(\CCC(=O)O)c2nc3ccccc3s2)cc1[N+](=O)[O-],"inconclusive: 50.1 µM [inhibitor, partial curve]"
22,COc1c(OC(C)=O)ccc(/C=C/c2ccc3cccc(OC)c3n2)c1[N+](=O)[O-],"inconclusive: 35.5 µM [inhibitor, partial curve]"
23,COc1cccc(CN(C)CC(=O)Nc2cccc3ccccc23)c1,"inconclusive: 56.2 µM [inhibitor, partial curve, poor fit]"

row,SMILES,Potency
1,Cc1nnn(-c2nonc2N)c1C(=O)N/N=C/c1ccccc1O,inactive
2,FC(F)(F)c1cnc(Nc2ccc(N3CCOCC3)cc2)c(Cl)c1,"inconclusive: 56.2 µM [inhibitor, partial curve]"
3,CN(C)c1ccc(CN(Cc2ccco2)C(=O)c2ccco2)cc1,"inconclusive: 28.2 µM [inhibitor, full curve]"
4,O=C(Nc1ccc([N+](=O)[O-])cc1)Nc1ccc(N2CCOCC2)c2nonc12,"inconclusive: 8.91 µM [inhibitor, partial curve, poor fit]"
5,O=C(c1ccc(SCc2cccc(Br)c2)c([N+](=O)[O-])c1)N1CCN(c2ccccn2)CC1,"inconclusive: 12.6 µM [inhibitor, partial curve]"
6,Cc1cccn2c(=S)[nH]nc12,active: 70.8 µM
7,CC1CCN(CCCOc2ccc(Br)cc2Cl)CC1,"inconclusive: 79.4 µM [inhibitor, partial curve]"
8,COc1ccc(Cl)cc1NC(=O)CN(C)C(=O)c1ccc(N2CCCCC2)c([N+](=O)[O-])c1,"inconclusive: 50.1 µM [inhibitor, partial curve]"
9,Nc1ccc2cccc(O)c2c1,"inconclusive: 56.2 µM [inhibitor, partial curve, poor fit]"
10,CN(CC(=O)Nc1ccc(F)c(F)c1F)C(=O)CN1C(=O)C2CCCCC2C1=O (stereo not drawn),inactive
11,COCCOCC(O)CN1CCN(c2ccc(C)cc2)CC1 (stereo not drawn),inactive
12,C=CC[n+]1c(-c2ccc(Cl)cc2Cl)csc1Nc1c(C)n(C)n(-c2ccccc2)c1=O,"inconclusive: 44.7 µM [inhibitor, partial curve]"
13,Cc1cccc(NC(=S)N/N=C/c2ccc([N+](=O)[O-])s2)c1,"inconclusive: 15.8 µM [inhibitor, partial curve, poor fit]"
14,Cc1ccn2c(Nc3c(C)cccc3C)c(-c3ccc(Cl)s3)nc2c1,"inconclusive: 17.8 µM [inhibitor, full curve]"
15,C/C(=N\NC(=S)Nc1cccc(C)c1)c1cc2ccccc2o1,"inconclusive: 12.6 µM [inhibitor, full curve]"
16,CC(C(=O)Nc1ccc(O)cc1C(=O)O)N1C(=O)/C(=C\c2cccs2)SC1=S (stereo not drawn),"inconclusive: 10 µM [inhibitor, partial curve]"
17,Cc1ccc(OCc2nc(C#N)c(NCc3ccc4c(c3)OCO4)o2)cc1,"inconclusive: 10 µM [inhibitor, partial curve, poor fit]"
18,COc1cccc(N2C(=O)CSC23C(=O)N(CC(=O)Nc2cccc(Cl)c2)c2ccccc23)c1 (stereo not drawn),inactive
19,Nc1cc(N)nc(SCc2cc(=O)oc3cc4c(cc23)CCC4)n1,"inconclusive: 22.4 µM [inhibitor, full curve]"
20,CC#CCCC(=O)N1C=Cc2ccccc2C1C#N (stereo not drawn),"inconclusive: 8.91 µM [inhibitor, single point]"
21,CN(C)c1ccc(/C=C/C(=O)c2cc(Cl)ccc2O)cc1,"inconclusive: 7.08 µM [inhibitor, full curve, poor fit]"
22,CCOc1ccc(-n2c(=O)c3c4c(sc3n(CC(=O)NC(C)CC)c2=O)CCC4)cc1 (stereo not drawn),inactive
